In all, about 33,000 sequences were measured (“E-score (-0.5 to 0.5)”: median about -0.016, highest 2% from about 0.31 on). The list shows a part of the results.
Target: Cst6 (UniProt P40535)
Assay: PBM E-score (8-mer binding enrichment) (E-score (-0.5 to 0.5)); higher = stronger / more preferred TF binding; most listed sequences are background and not binding sites
Settings: protein concentration: 200 nM; construct: GST-DNA-binding domain
Procedure: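 Universal 'all 10-mer' protein binding microarrays (Agilent AMADID 015681) probed with GST-tagged S. cerevisiae TFs (full-length or DBD) made by in vitro transcription/translation (PURExpress), about 100-200 nM. Bound TF was detected with fluorescent anti-GST. Each ungapped 8-mer (which stands for itself and its reverse complement) is scored by the PBM enrichment score (E-score), a modified Wilcoxon-Mann-Whitney statistic from -0.5 to +0.5, computed with the Universal PBM Analysis Suite. Scale: above 0.35 generally sequence-specific binding.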

Going from CTAACTAA to AGCCTGAA, the “PBM E-score” value falls from 0.0125 to -0.0532.

Compared with ATGCTCGC, AACTTGGC is higher in “PBM E-score” value: -0.0729 for the first, -0.0139 for the second.

Going from ACGTCTAC to CCAGAGCG, the “PBM E-score” value falls from 0.082 to -0.306.

Going from AAATCCCC to CAGGCAAA, the “PBM E-score” value rises from -0.25 to 0.0338.

First: GCGCTAAC
Second: CCTGGACC
The “PBM E-score” value of the first is higher: 0.0914 for the first, -0.26 for the second.

Going from ATCGGAAC to ACCCCACG, the “PBM E-score” value falls from -0.111 to -0.224.

First: GTGGGCAA
Second: AAGTCGCC
The “PBM E-score” value of the first is higher: -0.138 for the first, -0.219 for the second.

Going from ATCACACA to CATCGACA, the “PBM E-score” value falls from 0.162 to -0.108.

Going from AAGTGTGG to AGGCCTGC, the “PBM E-score” value falls from -0.125 to -0.252.

Compared with AGTCCTCG, GGAGCGGA is higher in “PBM E-score” value: -0.209 for the first, -0.166 for the second.

Compared with CGGGAACG, ACCCCGAG is lower in “PBM E-score” value: -0.199 for the first, -0.234 for the second.

First: AACGCCTA
Second: ACACACTC
The “PBM E-score” value of the first is lower: -0.00722 for the first, 0.0263 for the second.

First: CATGAATA
Second: GACGCATA
The “PBM E-score” value of the first is lower: 0.0861 for the first, 0.315 for the second.

Compared with ACTGACGG, ACTCCCTC is lower in “PBM E-score” value: 0.105 for the first, -0.168 for the second.

First: ACCATTGG
Second: AAACAAGA
The “PBM E-score” value of the first is lower: -0.0729 for the first, 0.0875 for the second.

Compared with AGGACTTC, GTGGAAAA is higher in “PBM E-score” value: -0.235 for the first, 0.0659 for the second.

First: GTGCGAAA
Second: AGACCACG
The “PBM E-score” value of the first is higher: -0.00531 for the first, -0.232 for the second.

First: AGTAGCAA
Second: CAAAACCC
The “PBM E-score” value of the first is higher: 0.0802 for the first, 0.0437 for the second.

First: CGCGCCAC
Second: AGACCCAA
The “PBM E-score” value of the first is higher: 0.0722 for the first, -0.0611 for the second.

First: CCAGCGTC
Second: CACTCATC
The “PBM E-score” value of the first is lower: -0.213 for the first, 0.00188 for the second.

Going from AGCAGCGC to GGTGAGTA, the “PBM E-score” value rises from -0.224 to -0.0162.

Going from GGCAACAA to AGAGATTC, the “PBM E-score” value falls from 0.194 to -0.0387.

Compared with AATTCCGA, AGATCTGG is lower in “PBM E-score” value: 0.0242 for the first, -0.21 for the second.

First: GACAATGC
Second: GAGATCCA
The “PBM E-score” value of the first is higher: 0.0763 for the first, -0.142 for the second.

Going from CGCGATCC to ACACGAAA, the “PBM E-score” value rises from -0.0522 to 0.0875.

First: ACGGTGCG
Second: GTCAATTA
The “PBM E-score” value of the first is lower: 0.104 for the first, 0.132 for the second.

Going from TAGTTATA to ACCGCCGA, the “PBM E-score” value falls from 0.177 to -0.117.

First: CTTACAAA
Second: CATCTTCG
The “PBM E-score” value of the first is higher: 0.105 for the first, -0.0381 for the second.

First: GTCACTGA
Second: ATTCTGAG
The “PBM E-score” value of the first is higher: 0.281 for the first, 0.104 for the second.

Going from TATTGTCA to ATTTCACA, the “PBM E-score” value falls from 0.276 to 0.175.

Going from ACATGCCT to ACTCCCGG, the “PBM E-score” value falls from 0.0329 to -0.227.

Compared with CAGATGTC, CACACGTC is higher in “PBM E-score” value: 0.0572 for the first, 0.293 for the second.

Compared with AAGTCACT, AACGGAGC is lower in “PBM E-score” value: 0.141 for the first, -0.164 for the second.

Going from GGCTGCCA to CCCCGTAC, the “PBM E-score” value falls from -0.204 to -0.254.

Compared with GGTGGTAC, TATTTCGA is higher in “PBM E-score” value: -0.311 for the first, 0.239 for the second.

Going from AACCAACG to ACCCATGC, the “PBM E-score” value rises from -0.161 to 0.0693.

Going from TCATCAGA to AGACACCG, the “PBM E-score” value falls from 0.135 to -0.0399.

First: CTCTACCC
Second: ACGGGGCC
The “PBM E-score” value of the first is lower: -0.13 for the first, 0.00152 for the second.

Compared with CTTTAAGC, CTCGATCC is lower in “PBM E-score” value: 0.0326 for the first, -0.195 for the second.

Going from AATACTAG to CGACCAAC, the “PBM E-score” value falls from 0.121 to -0.0308.

Going from AAGATCTC to GGGAACAC, the “PBM E-score” value falls from 0.0487 to -0.184.

Compared with GATGGAGA, CCTCCCTA is lower in “PBM E-score” value: 0.00147 for the first, -0.368 for the second.

Compared with CTCAGCTC, ATGACAGC is higher in “PBM E-score” value: -0.214 for the first, 0.253 for the second.

Going from GAGGAAGC to ACCGCTTA, the “PBM E-score” value rises from -0.256 to -0.0456.

First: CTCCTAAA
Second: CAATATTA
The “PBM E-score” value of the first is lower: -0.14 for the first, 0.215 for the second.

Compared with TAGGAAAA, GCGGCAAA is higher in “PBM E-score” value: 0.0141 for the first, 0.149 for the second.

Compared with AATCCCCC, ATGTAATC is higher in “PBM E-score” value: -0.247 for the first, 0.299 for the second.

Going from AATCGCTG to CGAATGTA, the “PBM E-score” value rises from -0.196 to -0.051.

First: CAGCAAGA
Second: CGCCATTA
The “PBM E-score” value of the first is lower: 0.0186 for the first, 0.0415 for the second.

Compared with CTGCAAAC, AATGAAGC is higher in “PBM E-score” value: -0.0743 for the first, 0.0218 for the second.

Going from CCCTGTCC to GACTTGAC, the “PBM E-score” value rises from -0.337 to -0.0223.

Going from CCGTCTTA to ATTGTTCC, the “PBM E-score” value rises from 0.0275 to 0.0298.

First: AGGCGGAG
Second: AGTCGGCA
The “PBM E-score” value of the first is lower: -0.247 for the first, -0.0646 for the second.

Going from GCGCAGCC to AGAGATTG, the “PBM E-score” value rises from -0.38 to 0.166.

First: AGAGCTGA
Second: AAGCTCGG
The “PBM E-score” value of the first is higher: 0.00422 for the first, -0.13 for the second.

Compared with GACCATTA, ACTTACAC is higher in “PBM E-score” value: 0.0582 for the first, 0.0708 for the second.

Going from AGCGCCTG to CAATGTCG, the “PBM E-score” value rises from -0.227 to 0.179.

First: AATGAGTC
Second: CTTAGCGA
The “PBM E-score” value of the first is lower: -0.0722 for the first, -0.0368 for the second.

First: GCGTTGCC
Second: ATGCTTAG
The “PBM E-score” value of the first is lower: 0.0103 for the first, 0.168 for the second.

First: AAGAAGCT
Second: TACCGAAA
The “PBM E-score” value of the first is higher: 0.147 for the first, -0.00477 for the second.

Compared with TACACAGA, CCTTACAC is lower in “PBM E-score” value: 0.0443 for the first, -0.088 for the second.

First: AACAAGCG
Second: CGCGTGAA
The “PBM E-score” value of the first is lower: 0.0764 for the first, 0.126 for the second.

First: ATGGTCAG
Second: GAACTGGA
The “PBM E-score” value of the first is higher: 0.102 for the first, 0.0771 for the second.

First: TATGAAAA
Second: AGGATTAA
The “PBM E-score” value of the first is higher: 0.225 for the first, 0.00584 for the second.

First: GATAGGCA
Second: CAAACTCC
The “PBM E-score” value of the first is higher: 0.104 for the first, 0.0554 for the second.

First: TGAGCTAA
Second: AGAGACAA
The “PBM E-score” value of the first is higher: 0.187 for the first, -0.108 for the second.

Compared with AACATGGT, GGAGCTAA is lower in “PBM E-score” value: -0.0339 for the first, -0.12 for the second.

Compared with CGAGCCGC, ATCCTAAC is lower in “PBM E-score” value: 0.276 for the first, 0.0564 for the second.

First: AGGTAAGG
Second: AGACTACT
The “PBM E-score” value of the first is lower: -0.132 for the first, -0.0215 for the second.

Going from ACAAATGA to GGACGCCA, the “PBM E-score” value falls from 0.224 to -0.139.

Compared with GCCGACCA, CATAGGGG is higher in “PBM E-score” value: -0.302 for the first, -0.183 for the second.

First: AGCCAGAC
Second: GGCCTAGA
The “PBM E-score” value of the first is higher: -0.101 for the first, -0.24 for the second.

Going from AGGTAGTC to ACTCTGAC, the “PBM E-score” value rises from -0.212 to 0.0578.

Compared with CGTAAAAC, CGACATTA is higher in “PBM E-score” value: -0.0276 for the first, 0.213 for the second.

Compared with GTAGCCTA, GTAGCGAC is lower in “PBM E-score” value: -0.102 for the first, -0.304 for the second.

First: GCATTGAA
Second: GTGAAACA
The “PBM E-score” value of the first is lower: 0.103 for the first, 0.181 for the second.

Going from CCCCCAGG to ATGATTTC, the “PBM E-score” value rises from -0.355 to 0.249.

First: ATCCTGGA
Second: GGTCCATA
The “PBM E-score” value of the first is higher: -0.0468 for the first, -0.34 for the second.

Compared with AAGTAAGA, AAGGCACG is higher in “PBM E-score” value: 0.0906 for the first, 0.286 for the second.

Compared with AAATGTCC, AAATTCCC is higher in “PBM E-score” value: -0.233 for the first, -0.0866 for the second.

Compared with AATGGCGT, GCGCTACA is lower in “PBM E-score” value: 0.191 for the first, 0.0789 for the second.

First: GGGGGATA
Second: CATCTTTC
The “PBM E-score” value of the first is lower: -0.388 for the first, 0.0966 for the second.

First: ACACCCAT
Second: GCTAACGA
The “PBM E-score” value of the first is lower: -0.041 for the first, 0.174 for the second.

First: AACTTACA
Second: CATAAATG
The “PBM E-score” value of the first is lower: 0.0468 for the first, 0.0924 for the second.

First: ACTCATCG
Second: GACAGGAC
The “PBM E-score” value of the first is higher: -0.0112 for the first, -0.132 for the second.

Compared with CGTGTCCC, GGCCAGGA is lower in “PBM E-score” value: -0.119 for the first, -0.311 for the second.

From the supplement of paper PMC3334620
